Source: PMC4336329 (PLoS ONE, 2015)
The whole screen tested about 310,000 compounds, of which about 14,000 (4.5%) showed an effect of 50% or more. The effect is printed as a negative number. The list shows a part of the results.

molecular target: human ether-à-go-go-related gene (hERG) potassium channel (human, UniProt Q12809); experiment: primary screen, population patch clamp on CHO cells stably expressing hERG
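Also: peak tail current of the secondary pulse compared with the same well before compound.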

Chain of human ether-à-go-go-related gene (hERG) potassium channel (Q12809 whole entry, looked up): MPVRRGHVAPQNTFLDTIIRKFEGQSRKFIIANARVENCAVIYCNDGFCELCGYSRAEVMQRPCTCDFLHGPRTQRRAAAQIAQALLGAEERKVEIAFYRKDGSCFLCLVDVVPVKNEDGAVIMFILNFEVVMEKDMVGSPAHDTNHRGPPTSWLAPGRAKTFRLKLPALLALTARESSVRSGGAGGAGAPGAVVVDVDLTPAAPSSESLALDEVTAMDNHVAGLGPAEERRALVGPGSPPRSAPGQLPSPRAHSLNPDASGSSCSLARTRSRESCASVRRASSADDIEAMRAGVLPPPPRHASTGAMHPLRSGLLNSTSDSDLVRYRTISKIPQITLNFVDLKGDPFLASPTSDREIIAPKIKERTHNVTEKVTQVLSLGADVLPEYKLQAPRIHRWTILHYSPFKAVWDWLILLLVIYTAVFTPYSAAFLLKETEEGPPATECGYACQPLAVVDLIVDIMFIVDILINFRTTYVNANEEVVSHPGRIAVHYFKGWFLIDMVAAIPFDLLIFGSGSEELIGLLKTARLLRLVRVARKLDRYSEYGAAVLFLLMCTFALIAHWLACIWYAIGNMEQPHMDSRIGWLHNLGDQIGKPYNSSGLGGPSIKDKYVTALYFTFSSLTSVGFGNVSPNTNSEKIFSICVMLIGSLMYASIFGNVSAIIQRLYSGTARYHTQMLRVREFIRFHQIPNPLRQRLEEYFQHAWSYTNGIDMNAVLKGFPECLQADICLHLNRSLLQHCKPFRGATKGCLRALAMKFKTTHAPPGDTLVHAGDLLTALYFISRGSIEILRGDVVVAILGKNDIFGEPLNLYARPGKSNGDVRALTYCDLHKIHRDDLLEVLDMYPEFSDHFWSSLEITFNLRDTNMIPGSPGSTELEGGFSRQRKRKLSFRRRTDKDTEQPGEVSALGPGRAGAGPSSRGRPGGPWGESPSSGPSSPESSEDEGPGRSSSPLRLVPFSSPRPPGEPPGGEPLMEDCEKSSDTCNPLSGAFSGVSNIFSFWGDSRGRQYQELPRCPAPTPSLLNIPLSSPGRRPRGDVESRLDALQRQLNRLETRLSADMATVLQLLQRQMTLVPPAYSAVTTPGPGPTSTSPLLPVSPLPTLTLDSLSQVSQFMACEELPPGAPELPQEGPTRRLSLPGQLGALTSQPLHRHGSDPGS

Row | Compound | hERG current change (%, negative = inhibition) at 10uM [%]
1 | CC1CC(C)CN(CCCNC(=O)Cn2ncc3c([nH]c4ccccc43)c2=O)C1 (stereo not drawn) | -18
2 | CNC(=O)C1CCN(S(=O)(=O)c2c(C)noc2/C=C/c2ccc(C)cc2)CC1 | 10.5
3 | O=C(COC(=O)C1(c2ccc(F)cc2)CCCC1)NCc1ccc2c(c1)OCO2 | -18.3
4 | Cc1ccc(CSc2nnc(-c3ccc(S(=O)(=O)N4CCCC4)cc3)o2)cc1 | 3.2
5 | Cc1nn(-c2ccccc2)cc1/C=N/NC(=O)c1cccs1 | 1.84
6 | O=C(Cc1c[nH]c2ccccc12)OCC(=O)c1ccccc1 | 11.1
7 | O=C(COC(=O)Cn1cnc2ccccc21)Nc1cc(S(=O)(=O)N2CCOCC2)ccc1Cl | -0.439
8 | CCCOC(=O)c1ccc(Oc2cn[nH]c2-c2ccc(OCC)cc2O)cc1 | 8.01
9 | Cc1nc(CNC(=O)CC2C(=O)NCCN2Cc2ccoc2)nc2c1CCCC2 (stereo not drawn) | 6.51
10 | Cc1ccc(-c2ccc(/C=N/NC(N)=S)o2)cc1 | -23.4
11 | Cl.O=C(Nc1ncccc1Cl)c1ccc2c(c1)OCCO2 | 2.17
12 | CCOC(=O)C1=C(CN2CCc3ccccc32)NC(=O)NC1c1cccc([N+](=O)[O-])c1 (stereo not drawn) | -7.46
13 | COc1ccc(C(CNC(=O)COc2ccc([N+](=O)[O-])cc2)N2CCCCC2)cc1 (stereo not drawn) | -69.9
14 | COc1ccc(CNC(=O)C2CCCN(S(=O)(=O)c3ccccc3)C2)cc1 (stereo not drawn) | -5.16
15 | Cc1cccc(C)c1NC(=O)C(C)c1ccc(-c2ccccc2)c(F)c1 (stereo not drawn) | 0.222
16 | Cc1[nH]n(C(N)=S)c(=O)c1N=Nc1cc(-c2ccc(Br)cc2)[nH]n1 | 24.7
17 | CCOC(=O)C1(Cc2cccc(F)c2)CCN(C(=O)Cc2cccnc2)CC1 | -9.65
18 | O=C1NC(=Nc2cccc(O)c2)S/C1=C\c1cccnc1 | 0.636
19 | COc1cc(NC(=O)c2cccs2)c(OC)cc1NC(=O)CCC(=O)Nc1ccc(C)cc1 | -14.4
20 | Cc1ccc(C)c(N)c1 | 12.1
21 | Cc1ccc(S(=O)(=O)N(C)c2ccc(C(=O)Nc3c(C)n(C)n(-c4ccccc4)c3=O)cc2)cc1 | 0.214
22 | CCCCc1nn(-c2cc(Cl)ccc2OC)c2c1C(=O)CC(C)(C)C2 | -39.4
23 | CNc1nccc(-c2ccc(F)cc2)c1C#N | 6.25
24 | O=C(Nc1ccc(Cl)cc1)OC(CN1CCCCC1)C(F)(F)F (stereo not drawn) | 0.427
